We go through 115 sequences from the BET-seq Pho4 binding data (Le et al. 2018).

The other results are listed elsewhere or left out. These are noisy estimates, calculated here from bound and input reads.

In this test the target is T1, Pho4 (S. cerevisiae) (UniProt P07270).
T1 sequence: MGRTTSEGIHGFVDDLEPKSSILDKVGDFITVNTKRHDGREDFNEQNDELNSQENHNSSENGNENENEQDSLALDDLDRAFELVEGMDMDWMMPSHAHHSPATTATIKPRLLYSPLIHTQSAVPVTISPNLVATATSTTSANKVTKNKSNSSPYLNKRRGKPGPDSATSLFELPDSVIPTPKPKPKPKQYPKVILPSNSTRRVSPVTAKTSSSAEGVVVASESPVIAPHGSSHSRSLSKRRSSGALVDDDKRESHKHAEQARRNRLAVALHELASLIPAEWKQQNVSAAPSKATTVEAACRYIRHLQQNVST
As to the kind of experiment: relative binding free energy (BET-seq); higher = weaker binding. Conditions: reference: library average.
Regarding AGTGACACGTGTTTAA, the “relative binding free energy” value was -0.09 kcal/mol.
Turning to AGGAGCACGTGTTCGT, the “relative binding free energy” value was -0.21 kcal/mol.
The value for ATGGGCACGTGAGTGG was 0.18 kcal/mol; that for TTGGGCACGTGTATAG was -0.08 kcal/mol.
With TTGGACACGTGCGTGG, the “relative binding free energy” value was -0.05 kcal/mol.
With AATTTCACGTGGGTGC, the “relative binding free energy” value stood at 0.2 kcal/mol.
The value for GTATTCACGTGTCGAG was 0.22 kcal/mol; that for GATATCACGTGAGTAT was 0.47 kcal/mol.
For CGGAGCACGTGAGGGC the value was 0.15 kcal/mol; for TGCAGCACGTGTTGGA, -0.03 kcal/mol; for AAATTCACGTGGTTTT, 0.28 kcal/mol.
For TTTTGCACGTGAAATC the value was 0.33 kcal/mol.
In the case of TTAAGCACGTGTTTAA, the “relative binding free energy” value was -0.16 kcal/mol.
CGGGTCACGTGTGGGC: the “relative binding free energy” value was 0.22 kcal/mol.
The value for GTGAGCACGTGTATAG was -0.09 kcal/mol; that for AGTTCCACGTGCAGTG was 0.18 kcal/mol; that for TCTGACACGTGTTGGG was 0.09 kcal/mol.
The value for GGAGACACGTGGAGTT was 0.17 kcal/mol; that for TTAAGCACGTGGGGCG was -0.14 kcal/mol.
With AAGGACACGTGTGTGT, the “relative binding free energy” value was determined as 0 kcal/mol.
For TAGATCACGTGATATG the value was 0.23 kcal/mol; for TAGTTCACGTGTTTCT, 0.39 kcal/mol.
For TTAGTCACGTGTGGTC the value was 0.11 kcal/mol; for AAGGGCACGTGTGCTA, -0.04 kcal/mol.
For GAGGGCACGTGATGAG the value was 0.17 kcal/mol; for GGGTGCACGTGATCAG, 0.15 kcal/mol.
Take TGACACACGTGGCGTG: the “relative binding free energy” value stood at 0 kcal/mol.
The value for TCAATCACGTGCGTGT was 0.13 kcal/mol; that for AGATGCACGTGCTTGT was -0.15 kcal/mol; that for TTCGCCACGTGTGTTA was 0.02 kcal/mol.
The value for TGAGACACGTGCAGTT was 0.14 kcal/mol.
The value for TGATGCACGTGGGTAG was -0.19 kcal/mol; that for GAGGTCACGTGGTTTG was 0.13 kcal/mol; that for CATGGCACGTGGAGGC was 0.04 kcal/mol.
Take GTATTCACGTGTAGGT: the “relative binding free energy” value was 0.16 kcal/mol.
For ATCGACACGTGGTGGG the value was -0.1 kcal/mol.
The value for TTAGTCACGTGAATGG was 0.26 kcal/mol.
On to GTTTTCACGTGTGTTC, for which the “relative binding free energy” value was 0.38 kcal/mol.
For GGGCGCACGTGGGTGG the value was -0.13 kcal/mol.
For TCTGGCACGTGGTTCT the value was -0.15 kcal/mol; for AGGTTCACGTGCGGGC, 0.33 kcal/mol; for TATTTCACGTGTCATG, 0.18 kcal/mol.
For GTAGGCACGTGCAATG the value was -0.07 kcal/mol; for GTTAGCACGTGTGCTA, -0.05 kcal/mol.
ATTATCACGTGCTGGG: the “relative binding free energy” value is 0.15 kcal/mol.
For GTTATCACGTGAAATT the value was 0.25 kcal/mol; for CGTGGCACGTGGTATG, -0.35 kcal/mol.
For TTGGTCACGTGGGTAG the value was -0.04 kcal/mol; for AGGTACACGTGTTATA, -0.05 kcal/mol; for AAAGTCACGTGGGCGG, -0.02 kcal/mol.
For ATTTTCACGTGTTGGA the value was 0.24 kcal/mol.
Consider GTTGTCACGTGCGGTC, for which the “relative binding free energy” value worked out at 0.02 kcal/mol.
For ATCGACACGTGTTAGG the value was 0.02 kcal/mol.
For AATTTCACGTGCAGGT the value was 0.24 kcal/mol; for GATGGCACGTGCGTCG, -0.05 kcal/mol.
The value for GAGGTCACGTGGGAAG was 0.16 kcal/mol; that for CGATTCACGTGCGGGT was 0.09 kcal/mol.
As for ATCGGCACGTGGAGGA, the “relative binding free energy” value was -0.09 kcal/mol.
Turning to GTTGGCACGTGCGTTA, the “relative binding free energy” value was -0.12 kcal/mol.
The value for CAGTTCACGTGGGCGT was 0.16 kcal/mol; that for GTGTGCACGTGGACTA was -0.05 kcal/mol; that for GTGGTCACGTGCTGTT was 0.03 kcal/mol.
For CTTGGCACGTGTTGTT the value was 0.02 kcal/mol.
For ATTAGCACGTGAGTGA the value was 0.13 kcal/mol; for CGCGTCACGTGAGTTG, 0.21 kcal/mol; for TGCGGCACGTGGTACG, -0.31 kcal/mol.
For GGGGACACGTGTAGGG, the “relative binding free energy” value is -0.06 kcal/mol.
The value for GGAGGCACGTGGGGCC was -0.18 kcal/mol; that for GGGTGCACGTGCTAGA was -0.07 kcal/mol; that for GTTAACACGTGTGATA was 0.13 kcal/mol.
For TTTAACACGTGGCTTA the value was 0.18 kcal/mol.
The value for TTGAGCACGTGGCATT was -0.21 kcal/mol; that for TTCATCACGTGATGGT was 0.25 kcal/mol.
With TTATTCACGTGAGGAG, the “relative binding free energy” value was 0.29 kcal/mol.
Take TGACTCACGTGGGGAT: the “relative binding free energy” value stood at 0.03 kcal/mol.
The value for ACAAGCACGTGGGGGT was -0.22 kcal/mol; that for GGTTGCACGTGACGCT was 0.14 kcal/mol; that for AGAGGCACGTGGGTGA was -0.22 kcal/mol.
For GTTTTCACGTGTAATC the value was 0.22 kcal/mol; for TAAGGCACGTGGTTGT, -0.13 kcal/mol; for TTGAGCACGTGAGTAA, 0.19 kcal/mol.
Consider GGTGGCACGTGTCCTT, for which the “relative binding free energy” value came to 0.1 kcal/mol.
As to TATTACACGTGAATAG, the “relative binding free energy” value was 0.43 kcal/mol.
For ATGCACACGTGTGGGG the value was 0.09 kcal/mol; for GTGTACACGTGGTGGC, 0.15 kcal/mol; for GTCAGCACGTGATATG, 0.13 kcal/mol.
The value for AGTTGCACGTGTAGCA was 0.04 kcal/mol; that for GTGCGCACGTGGGCAT was -0.04 kcal/mol; that for TTGTGCACGTGAACTA was 0.23 kcal/mol.
The value for CGAGGCACGTGCGGGA was -0.15 kcal/mol.
For ATGAACACGTGGGGAT, the “relative binding free energy” value was -0.2 kcal/mol.
For TAGATCACGTGAATGT the value was 0.29 kcal/mol; for ATGGTCACGTGTCATG, 0.13 kcal/mol; for GGTCGCACGTGTTCGG, -0.01 kcal/mol.
The value for TTGGCCACGTGGTCGG was -0.13 kcal/mol; that for TGTTGCACGTGCTGTT was -0.03 kcal/mol.
On to TTTGACACGTGGCTTA, for which the “relative binding free energy” value was -0.1 kcal/mol.
In the case of AGTGTCACGTGATTAA, the “relative binding free energy” value is 0.15 kcal/mol.
The value for AACTTCACGTGTGGAG was 0.35 kcal/mol; that for GTGTTCACGTGCGGAA was 0.1 kcal/mol.
The value for CAAGGCACGTGGGGGC was -0.34 kcal/mol.
For TGTTTCACGTGATCTG the value was 0.3 kcal/mol; for TCGAGCACGTGTAGTT, -0.02 kcal/mol; for GATGCCACGTGTTGAG, 0.04 kcal/mol.
With GGGGACACGTGCTATG, the “relative binding free energy” value was found to be 0.12 kcal/mol.
The value for GGTCGCACGTGTTTGA was 0.16 kcal/mol.
For CGGTTCACGTGAGTTT the value was 0.56 kcal/mol; for TGTCTCACGTGGGCAG, 0.14 kcal/mol; for GGGTGCACGTGAATCG, 0.16 kcal/mol.
Take ATGGACACGTGGTGAT: the “relative binding free energy” value turned out to be 0.02 kcal/mol.
For GAGCCCACGTGGGGGG the value was -0.24 kcal/mol; for CTGGACACGTGATGTT, 0.29 kcal/mol.
The value for GGCTGCACGTGTTTAT was 0.04 kcal/mol; that for GAAAGCACGTGCAGGT was 0.05 kcal/mol; that for AGGGTCACGTGGAATG was 0.17 kcal/mol.
